Some of the results follow. At the low end of the ranking the order means little.
Biological target: T1, GST-Rok (full length) (UniProt O34857)
T1 sequence: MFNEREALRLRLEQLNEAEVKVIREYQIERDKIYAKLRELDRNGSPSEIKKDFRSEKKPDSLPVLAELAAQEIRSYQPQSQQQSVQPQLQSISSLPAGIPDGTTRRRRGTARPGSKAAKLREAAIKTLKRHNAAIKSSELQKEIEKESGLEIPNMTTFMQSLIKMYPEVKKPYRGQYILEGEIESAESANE
Assay: protein binding microarray;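 also: rank score from −0.5 (least bound) to 0.5 (best bound)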
Conditions: Rok is a gene silencer of Bacillus subtilis; high values mean tight binding; most listed sequences are background and not binding sites; double strand, one strand shown

Row | Sequence | binding signal
1 | CTCCGGAG | -0.138 E-score
2 | ACAACCTC | -0.0717 E-score
3 | ATATAGCA | 0.213 E-score
4 | ATCGCCAA | -0.0596 E-score
5 | ATCAAAGG | -0.072 E-score
6 | GTTATTTA | 0.197 E-score
7 | AGCTAAAT | 0.18 E-score
8 | AAAGAAGG | -0.129 E-score
9 | GAGCTTAC | -0.0909 E-score
10 | CGTATTTA | 0.261 E-score
11 | ATTAACAA | 0.225 E-score
12 | AATGCATC | 0.0539 E-score
13 | ATTATTAG | 0.255 E-score
14 | TAATTATA | 0.385 E-score
15 | CAGAACCA | -0.00486 E-score
16 | CGATTGCG | -0.00985 E-score
17 | ACCCCTAG | -0.113 E-score
18 | CGCGGCTA | -0.2 E-score
19 | CCAGTATC | -0.0798 E-score
20 | AAGTGCGT | -0.0891 E-score
21 | GTTCGCTA | 0.0859 E-score
22 | CACGTGAC | -0.21 E-score

Row | Sequence | binding signal
23 | AAGTGATT | 0.0598 E-score
24 | TCGCGTAA | 0.195 E-score
25 | GAAGAAAA | -0.0942 E-score
26 | CGGCAATC | -0.144 E-score
27 | CAAAGTTG | -0.169 E-score
28 | AACAAACA | 0.0686 E-score
29 | AGTCGGCA | -0.0691 E-score
30 | GGGGAAAA | -0.0477 E-score
31 | AGAAGCAC | -0.167 E-score
32 | ACAAATTG | -0.0361 E-score
33 | AACGGAGC | 0.0292 E-score
34 | CAGTGCGC | -0.0687 E-score
35 | TGTTTAAA | 0.0326 E-score
36 | AGCATACT | 0.0869 E-score
37 | ATCAGCAG | 0.0961 E-score
38 | GATCCTTA | -0.00255 E-score
39 | CAGGAAGG | -0.111 E-score
40 | GACGCAAA | 0.00774 E-score
41 | ACAAGAGT | 0.0849 E-score
42 | GGTCGCAC | -0.183 E-score
43 | AGACACAG | -0.115 E-score
44 | CCTACGCC | -0.171 E-score

Row | Sequence | binding signal
45 | GCAGCTTA | -0.093 E-score
46 | AGTAAAAG | 0.19 E-score
47 | AAAGCTCG | -0.176 E-score
48 | ATGACCAT | -0.0893 E-score
49 | CCGGGCAA | -0.268 E-score
50 | CCCTCCAC | -0.231 E-score
51 | CGTTCGAG | -0.0997 E-score
52 | CGGTGGTC | -0.275 E-score
53 | GTACGTAA | 0.119 E-score
54 | CAGTTAGA | 0.000546 E-score
55 | AGTGCTTG | -0.0505 E-score
56 | AATATTTG | 0.256 E-score
57 | AGGGATCA | -0.259 E-score
58 | CTTGTCTC | 0.0221 E-score
59 | ATCAATTA | 0.231 E-score
60 | ACAGCTAA | 0.193 E-score
61 | ACGCAGAG | -0.119 E-score
62 | CCTGGCCA | -0.293 E-score
63 | GTATACTA | 0.378 E-score
64 | GTCTCGAA | -0.0554 E-score
65 | CCTGACCG | -0.228 E-score
66 | AACTGACG | -0.0918 E-score

Row | Sequence | binding signal
67 | CGAGTTAC | 0.0192 E-score
68 | ACGGGGGC | -0.5 E-score
69 | ATCATTAC | 0.315 E-score
70 | GTGAATGA | -0.163 E-score
71 | CGTCTCAG | -0.278 E-score
72 | CAGATACC | -0.000413 E-score
73 | ACGAAAGG | -0.0693 E-score
74 | ACATGTCC | -0.122 E-score
75 | GACCATAA | -0.0227 E-score
76 | CGTCTTTC | 0.000649 E-score
77 | CCCGACTA | -0.18 E-score
78 | CGCCTTTC | -0.138 E-score
79 | ATGGCACG | 0.0421 E-score
80 | ACCCGAAG | -0.241 E-score
81 | AACGAGAT | -0.0704 E-score
82 | AACCCCAG | -0.299 E-score
83 | CAGCCATA | 0.0273 E-score
84 | AAGCGATT | 0.0584 E-score
85 | TGTCCCAA | -0.1 E-score
86 | ACATAACC | 0.0404 E-score
